# Experimental data as given in PubChem BioAssay (NCATS).
# Several values for one entry are separate records, joined by “and”; a condition that tells them apart may be missing. Equal values may be shown once. The inconclusive results got no clear call from the source. Potencies beside an inconclusive call are fits to weak or partial responses and may not hold up.
# System: HeLa
# Assay: Primary qHTS to identify gynecologic anti-cancer compounds using libraries of approved drugs and bioactive compounds (AID 1345084); note: nearly all actives have a fitted effect of over 55% in size
# Settings: Gynecologic cancer cell panel viability, ATPlite luminescence, 48 h; series mostly up to 57.5 µM; active = well fitted cell-killing curve with a large enough effect; inconclusive = small, poorly fitted or top-dose-only effect, or effect the other way; inactive = flat fitted curve, though single readings scatter
# Procedure, shortened: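 Luminescence from the ATPlite ATP-monitoring reagent indicates viable cell number; lower signal means cytotoxicity. Cells received compound 16 h after seeding and were exposed for 48 h across five concentrations.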
# Potency is the fitted concentration of half-maximal effect; tags give direction and shape of the fitted curve.
row,SMILES,Potency
1,Cc1ccc(C(=O)c2cc(O)c(O)c([N+](=O)[O-])c2)cc1,"inconclusive: 39.8 µM [cytotoxic, single point]"
2,C[C@@H]1CCO[C@H]2Cn3cc(C(=O)NCc4ccc(F)cc4F)c(=O)c(O)c3C(=O)N12,"inconclusive: 39.8 µM [cytotoxic, single point]"
3,COc1ccc(-c2nc3ccc(C4=NNC(=O)CC4C)cc3[nH]2)cc1 (stereo not drawn),"inconclusive: 39.8 µM [cytotoxic, single point] and inconclusive: 35.5 µM [cytotoxic, single point]"
